According to the supplement of paper PMC8728848:
The list shows a part of the results.

What was measured:
Assay in all cases: glycan array binding signal (z-score within array); higher = stronger binding
Conditions in all cases: glycan notation: IUPAC condensed, linker removed
Glc(b1-4)Glc = target: Glc(b1-4)Glc
How it was run: (§1)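 Columns mapping to the same glycan were averaged after glycan names were converted to IUPAC-condensed notation. The data come from 3228 arrays in the Consortium for Functional Glycomics database, limited to those with an available protein sequence. Binding is reported as a within-array Z-score averaged across arrays of one protein sequence and across linkers.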

Glc(b1-6)Glc = target: Glc(b1-6)Glc
How it was run: as §1

GlcA(b1-3)Gal = target: GlcA(b1-3)Gal
How it was run: as §1

GlcA(b1-3)GlcNAc = target: GlcA(b1-3)GlcNAc
How it was run: as §1

GlcA(b1-6)Gal = target: GlcA(b1-6)Gal
How it was run: as §1

[1] = target: GlcA3S(b1-3)Gal(b1-4)GlcNAc(b1-2)Man
How it was run: as §1

[2] = target: GlcA3S(b1-3)Gal(b1-4)GlcNAc(b1-3)Gal(b1-4)Glc
How it was run: as §1

[3] = target: GlcNAc(a1-3)Gal(b1-4)GlcNAc
How it was run: as §1

[4] = target: GlcNAc(a1-4)Gal(b1-3)GlcNAc
How it was run: as §1

[5] = target: GlcNAc(a1-4)Gal(b1-4)GalNAc
How it was run: as §1

[6] = target: GlcNAc(a1-4)Gal(b1-4)GlcNAc
How it was run: as §1

[7] = target: GlcNAc(a1-4)Gal(b1-4)GlcNAc(b1-3)Gal(b1-4)Glc
How it was run: as §1

[8] = target: GlcNAc(a1-4)Gal(b1-4)GlcNAc(b1-3)Gal(b1-4)GlcNAc
How it was run: as §1

[9] = target: GlcNAc(a1-4)Gal(b1-4)GlcNAc(b1-3)Gal(b1-4)GlcNAc(b1-3)Gal(b1-4)GlcNAc
How it was run: as §1

[10] = target: GlcNAc(a1-4)Gal(b1-4)GlcNAc(b1-3)Gal(b1-4)[Fuc(a1-3)]GlcNAc(b1-3)Gal(b1-4)[Fuc(a1-3)]GlcNAc
How it was run: as §1

[11] = target: GlcNAc(a1-6)Gal(b1-4)GlcNAc
How it was run: as §1

[12] = target: GlcNAc(b1-2)Gal(b1-3)GalNAc
How it was run: as §1

[13] = target: GlcNAc(b1-2)Man(a1-3)[GlcNAc(b1-2)Man(a1-6)]Man(b1-4)GlcNAc(b1-4)GlcNAc
How it was run: as §1

[14] = target: GlcNAc(b1-2)Man(a1-3)[GlcNAc(b1-2)Man(a1-6)]Man(b1-4)GlcNAc(b1-4)[Fuc(a1-6)]GlcNAc
How it was run: as §1

[15] = target: GlcNAc(b1-2)Man(a1-3)[GlcNAc(b1-4)][GlcNAc(b1-2)Man(a1-6)]Man(b1-4)GlcNAc(b1-4)GlcNAc
How it was run: as §1

[16] = target: GlcNAc(b1-2)Man(a1-3)[GlcNAc(b1-4)][GlcNAc(b1-2)Man(a1-6)]Man(b1-4)GlcNAc(b1-4)[Fuc(a1-6)]GlcNAc
How it was run: as §1

[17] = target: GlcNAc(b1-2)[GlcNAc(b1-4)]Man(a1-3)[GlcNAc(b1-2)Man(a1-6)]Man(b1-4)GlcNAc(b1-4)GlcNAc
How it was run: as §1

[18] = target: GlcNAc(b1-2)[GlcNAc(b1-4)]Man(a1-3)[GlcNAc(b1-4)][GlcNAc(b1-2)Man(a1-6)]Man(b1-4)GlcNAc(b1-4)GlcNAc
How it was run: as §1

[19] = target: GlcNAc(b1-2)[GlcNAc(b1-4)]Man(a1-3)[GlcNAc(b1-4)][GlcNAc(b1-2)[GlcNAc(b1-6)]Man(a1-6)]Man(b1-4)GlcNAc(b1-4)GlcNAc
How it was run: as §1

[20] = target: GlcNAc(b1-2)[GlcNAc(b1-4)]Man(a1-3)[GlcNAc(b1-4)][GlcNAc(b1-2)[GlcNAc(b1-6)]Man(a1-6)]Man(b1-4)GlcNAc(b1-4)[Fuc(a1-6)]GlcNAc
How it was run: as §1

[21] = target: GlcNAc(b1-2)[GlcNAc(b1-6)]Man(a1-6)[GlcNAc(b1-2)Man(a1-3)]Man(b1-4)GlcNAc(b1-4)GlcNAc
How it was run: as §1

[22] = target: GlcNAc(b1-2)[GlcNAc(b1-6)]Man(a1-6)[GlcNAc(b1-2)Man(a1-3)]Man(b1-4)GlcNAc(b1-4)[Fuc(a1-6)]GlcNAc
How it was run: as §1

[23] = target: GlcNAc(b1-2)[GlcNAc(b1-6)]Man(a1-6)[GlcNAc(b1-4)][GlcNAc(b1-2)Man(a1-3)]Man(b1-4)GlcNAc(b1-4)GlcNAc
How it was run: as §1

GlcNAc(b1-3)Fuc = target: GlcNAc(b1-3)Fuc
How it was run: as §1

GlcNAc(b1-3)Gal = target: GlcNAc(b1-3)Gal
How it was run: as §1

[24] = target: GlcNAc(b1-3)Gal(b1-3)GalNAc
How it was run: as §1

GlcNAc(b1-3)Gal(b1-4)Glc = target: GlcNAc(b1-3)Gal(b1-4)Glc
How it was run: as §1

[25] = target: GlcNAc(b1-3)Gal(b1-4)GlcNAc
How it was run: as §1

[26] = target: GlcNAc(b1-3)Gal(b1-4)GlcNAc(b1-2)Man(a1-3)[GlcNAc(b1-3)Gal(b1-4)GlcNAc(b1-2)Man(a1-6)]Man(b1-4)GlcNAc(b1-4)GlcNAc
How it was run: as §1

[27] = target: GlcNAc(b1-3)Gal(b1-4)GlcNAc(b1-2)Man(a1-3)[GlcNAc(b1-3)Gal(b1-4)GlcNAc(b1-2)Man(a1-6)]Man(b1-4)GlcNAc(b1-4)[Fuc(a1-6)]GlcNAc
How it was run: as §1

[28] = target: GlcNAc(b1-3)Gal(b1-4)GlcNAc(b1-2)[GlcNAc(b1-3)Gal(b1-4)GlcNAc(b1-6)]Man(a1-6)[GlcNAc(b1-3)Gal(b1-4)GlcNAc(b1-2)Man(a1-3)]Man(b1-4)GlcNAc(b1-4)GlcNAc
How it was run: as §1

[29] = target: GlcNAc(b1-3)Gal(b1-4)GlcNAc(b1-3)Gal(b1-4)GlcNAc
How it was run: as §1

[30] = target: GlcNAc(b1-3)Gal(b1-4)GlcNAc(b1-3)Gal(b1-4)GlcNAc(b1-2)Man(a1-3)[GlcNAc(b1-3)Gal(b1-4)GlcNAc(b1-3)Gal(b1-4)GlcNAc(b1-2)Man(a1-6)]Man(b1-4)GlcNAc(b1-4)GlcNAc
How it was run: as §1

[31] = target: GlcNAc(b1-3)Gal(b1-4)GlcNAc(b1-3)Gal(b1-4)GlcNAc(b1-2)Man(a1-3)[GlcNAc(b1-3)Gal(b1-4)GlcNAc(b1-3)Gal(b1-4)GlcNAc(b1-2)Man(a1-6)]Man(b1-4)GlcNAc(b1-4)[Fuc(a1-6)]GlcNAc
How it was run: as §1

[32] = target: GlcNAc(b1-3)Gal(b1-4)GlcNAc(b1-3)Gal(b1-4)GlcNAc(b1-2)[GlcNAc(b1-3)Gal(b1-4)GlcNAc(b1-3)Gal(b1-4)GlcNAc(b1-6)]Man(a1-6)[GlcNAc(b1-3)Gal(b1-4)GlcNAc(b1-3)Gal(b1-4)GlcNAc(b1-2)Man(a1-3)]Man(b1-4)GlcNAc(b1-4)[Fuc(a1-6)]GlcNAc
How it was run: as §1

[33] = target: GlcNAc(b1-3)Gal(b1-4)GlcNAc(b1-3)Gal(b1-4)GlcNAc(b1-3)Gal(b1-4)GlcNAc(b1-2)Man(a1-3)[GlcNAc(b1-3)Gal(b1-4)GlcNAc(b1-3)Gal(b1-4)GlcNAc(b1-3)Gal(b1-4)GlcNAc(b1-2)Man(a1-6)]Man(b1-4)GlcNAc(b1-4)GlcNAc
How it was run: as §1

[34] = target: GlcNAc(b1-3)Gal(b1-4)GlcNAc(b1-3)Gal(b1-4)GlcNAc(b1-3)Gal(b1-4)GlcNAc(b1-2)Man(a1-3)[GlcNAc(b1-3)Gal(b1-4)GlcNAc(b1-3)Gal(b1-4)GlcNAc(b1-3)Gal(b1-4)GlcNAc(b1-2)Man(a1-6)]Man(b1-4)GlcNAc(b1-4)[Fuc(a1-6)]GlcNAc
How it was run: as §1

[35] = target: GlcNAc(b1-3)Gal(b1-4)GlcNAc(b1-3)Gal(b1-4)GlcNAc(b1-3)Gal(b1-4)GlcNAc(b1-2)[GlcNAc(b1-3)Gal(b1-4)GlcNAc(b1-3)Gal(b1-4)GlcNAc(b1-3)Gal(b1-4)GlcNAc(b1-6)]Man(a1-6)[GlcNAc(b1-3)Gal(b1-4)GlcNAc(b1-3)Gal(b1-4)GlcNAc(b1-3)Gal(b1-4)GlcNAc(b1-2)Man(a1-3)]Man(b1-4)GlcNAc(b1-4)[Fuc(a1-6)]GlcNAc
How it was run: as §1

[36] = target: GlcNAc(b1-3)Gal(b1-4)GlcNAc(b1-3)Gal(b1-4)GlcNAc(b1-3)Gal(b1-4)GlcNAc(b1-3)Gal(b1-4)GlcNAc(b1-2)Man(a1-3)[GlcNAc(b1-3)Gal(b1-4)GlcNAc(b1-3)Gal(b1-4)GlcNAc(b1-3)Gal(b1-4)GlcNAc(b1-3)Gal(b1-4)GlcNAc(b1-2)Man(a1-6)]Man(b1-4)GlcNAc(b1-4)GlcNAc
How it was run: as §1

[37] = target: GlcNAc(b1-3)Gal(b1-4)GlcNAc(b1-3)Gal(b1-4)GlcNAc(b1-3)Gal(b1-4)GlcNAc(b1-3)Gal(b1-4)GlcNAc(b1-2)Man(a1-3)[GlcNAc(b1-3)Gal(b1-4)GlcNAc(b1-3)Gal(b1-4)GlcNAc(b1-3)Gal(b1-4)GlcNAc(b1-3)Gal(b1-4)GlcNAc(b1-2)Man(a1-6)]Man(b1-4)GlcNAc(b1-4)[Fuc(a1-6)]GlcNAc
How it was run: as §1

B1: Epa9 (Candida glabrata), CAGL0A01386g (protein)
chain: MGSSHHHHHHSSGLVPRGSHMDITPFAHYPRPEGCSSPPNAVSVGLHMDLYNYPYLYVKNPRTGFTNDTDSDADGETDGDSAGGIEGRAGQCWNPEYQDPNFPRYGYKKYGSFGSSDHVNGKISWDHNEFKEGCKPIMARLPTAYNYPAKITFSNFTMVLSGYFKPKSTGLYKFEIHADDFILFNFGSKNAFECCNREESIDNFGPYVAYAMWPNEADQELEVYLFEDSYYPIRLFYNNRDYHSKFMVGFYPPNTEEITYDFDGYLYMLDDTGNECKDSIRYKTVCDD
- glycan array binding signal (z-score) (Glc(b1-4)Glc): -0.467
- glycan array binding signal (z-score) (Glc(b1-6)Glc): -0.483
- glycan array binding signal (z-score) (GlcA(b1-3)Gal): -0.473
- glycan array binding signal (z-score) (GlcA(b1-3)GlcNAc): -0.49
- glycan array binding signal (z-score) (GlcA(b1-6)Gal): -0.198
- glycan array binding signal (z-score) [1]: -0.48
- glycan array binding signal (z-score) [2]: -0.456
- glycan array binding signal (z-score) [3]: -0.472
- glycan array binding signal (z-score) [4]: -0.492
- glycan array binding signal (z-score) [5]: -0.515
- glycan array binding signal (z-score) [6]: -0.453
- glycan array binding signal (z-score) [7]: -0.565
- glycan array binding signal (z-score) [8]: -0.445
- glycan array binding signal (z-score) [9]: -0.462
- glycan array binding signal (z-score) [10]: -0.409
- glycan array binding signal (z-score) [11]: 1.4
- glycan array binding signal (z-score) [12]: -0.446
- glycan array binding signal (z-score) [13]: -0.48
- glycan array binding signal (z-score) [14]: -0.404
- glycan array binding signal (z-score) [15]: -0.485
- glycan array binding signal (z-score) [16]: -0.459
- glycan array binding signal (z-score) [17]: -0.372
- glycan array binding signal (z-score) [18]: -0.47
- glycan array binding signal (z-score) [19]: -0.501
- glycan array binding signal (z-score) [20]: -0.473
- glycan array binding signal (z-score) [21]: -0.462
- glycan array binding signal (z-score) [22]: -0.444
- glycan array binding signal (z-score) [23]: -0.467
- glycan array binding signal (z-score) (GlcNAc(b1-3)Fuc): -0.463
- glycan array binding signal (z-score) (GlcNAc(b1-3)Gal): -0.471
- glycan array binding signal (z-score) [24]: -0.414
- glycan array binding signal (z-score) (GlcNAc(b1-3)Gal(b1-4)Glc): -0.43
- glycan array binding signal (z-score) [25]: -0.451
- glycan array binding signal (z-score) [26]: -0.47
- glycan array binding signal (z-score) [27]: -0.4
- glycan array binding signal (z-score) [28]: -0.373
- glycan array binding signal (z-score) [29]: -0.392
- glycan array binding signal (z-score) [30]: -0.371
- glycan array binding signal (z-score) [31]: -0.415
- glycan array binding signal (z-score) [32]: -0.404
- glycan array binding signal (z-score) [33]: -0.416
- glycan array binding signal (z-score) [34]: -0.393
- glycan array binding signal (z-score) [35]: -0.41
- glycan array binding signal (z-score) [36]: -0.276
- glycan array binding signal (z-score) [37]: 0.061
